# Laboratory results reported in publication PMC6919601, “Identification of Plasmodium dipeptidyl aminopeptidase allosteric inhibitors by high throughput screening” (PLoS ONE, 2019).
# The campaign covered roughly 110,000 compounds. About 230 (0.21%) showed an effect of 50% or more. This is one part of the list.
# Biological target: DPAP1 (Plasmodium falciparum, UniProt Q8IIJ9)
# Assay: primary screen, percent inhibition; read by cleavage of a fluorogenic dipeptide substrate; higher = more effect of the substance
# Set-up: species or system P. falciparum D10 trophozoite lysates; single well
# 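Further: 30 min substrate incubation versus DMSO and 10 µM JCP410 controls.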
# Chain of DPAP1 (Q8IIJ9 whole entry, looked up): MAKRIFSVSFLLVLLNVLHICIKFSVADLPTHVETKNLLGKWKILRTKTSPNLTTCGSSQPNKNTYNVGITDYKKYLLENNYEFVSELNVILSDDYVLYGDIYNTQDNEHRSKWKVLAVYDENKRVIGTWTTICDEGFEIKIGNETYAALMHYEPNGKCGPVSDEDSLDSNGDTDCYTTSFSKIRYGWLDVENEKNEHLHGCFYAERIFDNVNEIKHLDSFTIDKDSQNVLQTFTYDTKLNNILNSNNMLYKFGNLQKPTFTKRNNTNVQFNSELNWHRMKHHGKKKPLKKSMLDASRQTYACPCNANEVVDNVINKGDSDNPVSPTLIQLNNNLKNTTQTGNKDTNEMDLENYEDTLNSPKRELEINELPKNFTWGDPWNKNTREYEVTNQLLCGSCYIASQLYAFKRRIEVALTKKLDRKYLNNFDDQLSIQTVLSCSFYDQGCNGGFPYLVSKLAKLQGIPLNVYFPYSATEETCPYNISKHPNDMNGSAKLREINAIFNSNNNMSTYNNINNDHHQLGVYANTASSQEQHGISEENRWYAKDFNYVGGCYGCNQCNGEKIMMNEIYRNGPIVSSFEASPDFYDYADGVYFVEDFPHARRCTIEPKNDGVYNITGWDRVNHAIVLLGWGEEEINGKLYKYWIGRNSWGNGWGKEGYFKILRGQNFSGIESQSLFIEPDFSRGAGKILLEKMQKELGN
row,Compound,% Inhibition @ 10 uM
1,CCOC(=O)C1=C(CSc2nccn2C)NC(=O)NC1c1cc(C)ccc1C (stereo not drawn),-0.834%
2,Cc1c(CC(=O)N2CCOCC2)c(=O)oc2cc3occ(-c4ccc(Cl)cc4)c3cc12,2.54%
3,Cc1cc2nnc(SCC(=O)O)n2c2ccccc12,-2.19%
4,CCNc1cc2oc(=O)cc(C)c2cc1C,-0.13%
5,COc1cccc(C(=O)Nc2ccccc2C(=O)Nc2cccc(Cl)c2)c1,-0.795%
6,Cc1sc(C(=O)O)cc1-c1ccc(C(=O)N[C@@H](Cc2c(F)cccc2F)C(=O)NCC#N)cc1,0.079%
7,CCOc1ccc(CNc2ncc(-c3ccccc3)n2C)cc1,-1.11%
8,COc1ccc(Br)cc1CNCCc1ccc2c(c1)OCO2,-6.3%
9,Cn1c(C(F)(F)F)cc(=O)n(-c2ccc3c(Cl)nn(CC#N)c3c2)c1=O,-1.49%
10,O=C(Nc1sc2c(c1C(=O)O)CCC2)c1ccc(Br)cc1,1.78%
11,N#Cc1c(NC(=O)c2cc(-c3ccc(F)cc3)on2)sc2c1CCCC2,4.5%
12,Cc1ccc(CNC(=O)c2cc3c(-c4ccc(Cl)cc4)nn(C)c3s2)o1,-4.96%
13,O=C(Nc1cccnc1)c1nc2ncccn2n1,-3.53%
14,O=C(CCc1ccc(S(=O)(=O)NCc2ccccc2)cc1)N1CCN(c2ccc(F)cc2)CC1,-0.95%
15,Cc1sc(NC(=O)Nc2ccc(Cl)c(Cl)c2)c(C(N)=O)c1C,-4.03%
16,Cc1cc(C)c2c(n1)SCC(=O)N2CCCC(=O)NCc1ccc(Cl)cc1,-2.59%
17,Cc1ccc(-n2nc3c(=O)n(CCCC(=O)N4CCC(C)CC4)nc(C)c3c2C)cc1,-2.87%
18,CC(C)C(=O)NCCCc1nc2ccccc2n1Cc1ccccc1,-5.92%
19,COc1ccc(Cl)cc1S(=O)(=O)NCCC12CC3CC(CC(C3)C1)C2,-3.04%
20,CCN(CC)S(=O)(=O)c1ccc(NC(=O)COc2ccc(C)cc2Br)cc1,0.795%
21,CCN1CCN(Cc2c(C)n(C)n(-c3ccccc3)c2=O)CC1,1.88%

row,Compound,% Inhibition @ 10 uM
1,CCOC(=O)c1c(C)[nH]c(C)c1S(=O)(=O)NCCc1ccc(Cl)cc1,1.74%
2,Cc1c(Cl)cccc1NC(=O)CSCc1cccc(Br)c1,-0.0217%
3,COc1ccc(/C=C2\C(=O)NC(=S)N(c3ccc(Cl)cc3)C2=O)c(OC)c1,-5.92%
4,O=C(CCC(=O)N1CC2CC(C1)c1cccc(=O)n1C2)NCCc1ccccc1 (stereo not drawn),-1.6%
5,CCc1ccc(N2CC(C(=O)Nc3ccc(Br)c(OC)c3)CC2=O)cc1 (stereo not drawn),-3.6%
6,Cc1cc(C)cc(NC(=O)CC2NC3CCCCC3NC2=O)c1 (stereo not drawn),3.04%
7,O=C(Nc1cccc([N+](=O)[O-])c1)c1cccnc1,-3.03%
8,Cc1ccsc1CCNC(=O)c1ccc(-c2ccccc2)s1,-3.96%
9,CN1CCC(N(C)Cc2cccnc2)CC1,-4.61%
10,COc1ccc(-c2cnc3c(O)ncnc3n2)cc1,2.27%
11,O=C(CCc1cn(Cc2ccc(F)cc2)c2ccccc12)N1CCOCC1,0.304%
12,Cc1ccnc(NC(=O)CSc2nc(C)c(CC(C)C)[nH]2)c1,2.62%
13,COc1cccc(C2(O)CC(C(F)(F)F)=NN2C(=O)C(C)C)c1 (stereo not drawn),-4.63%
14,CN(C)C(=O)N[C@@H](CSCc1ccccc1)C(=O)NCC#N,4.33%
15,CC(=O)c1cc2c(cc1NC(=O)c1ccc(Cl)c(Cl)c1)OCO2,-0.884%
16,COc1cc2c(c(Br)c1OC)COC(=O)C21CCCC1,11.1%
17,Cc1ccc(Cc2c(C)nc3c(C(=O)NCCC(C)C)cnn3c2C)cc1,-2.26%
18,Cc1ccc(C(=O)NCc2nc3nc(C)cc(C)n3n2)cc1,4.4%
19,Cc1ccc2oc(=O)c3cc(C(=O)Nc4cc(C)on4)sc3c2c1,-0.646%
20,C=C1c2cc(OC)ccc2NC(=O)N1c1ccccc1,-9.94%
21,CCOC(=O)c1c(C)[nH]c(C)c1S(=O)(=O)N1CCC(C(=O)NC2CCCc3ccccc32)CC1 (stereo not drawn),-1.05%

row,Compound,% Inhibition @ 10 uM
1,CCCOc1cccc(C2c3c(-c4ccccc4O)n[nH]c3C(=O)N2Cc2ccncc2)c1 (stereo not drawn),-5.33%
2,CCN1CCN(S(=O)(=O)c2ccc(-c3ccc(Cl)cc3)cc2)CC1,-3.29%
3,Cc1cccc(-c2noc(CNC(=O)CCN3C(=O)c4ccccc4C3=O)n2)c1,-3.24%
4,CC(C)CC(NC(=O)c1ccc(NC(=O)Nc2nncs2)cc1)C(=O)NCC#N (stereo not drawn),-5.64%
5,CC(Oc1ccccc1)C(=O)Nc1nc2ccccc2s1 (stereo not drawn),-0.872%
6,Cc1ccc(-c2cc3c(nn2)-c2ccccc2C3=O)cc1,2.86%
7,NC(=O)c1cc(S(=O)(=O)N(CCc2ccncc2)CC2CCCO2)cs1 (stereo not drawn),-2.86%
8,CC(=O)OC1(c2ccccc2)CC(C)CN(C(C)(C)C)C1 (stereo not drawn),2.22%
9,O=C1NC2SCCCN2C(O)=C1C(C1=C(O)N2CCCSC2NC1=O)c1ccc(O)cc1 (stereo not drawn),1.96%
10,O=C(O)CCSc1nccn1Cc1ccccc1,-0.0217%
11,O=C(C1CCC(CNS(=O)(=O)c2ccc(Cl)cc2)CC1)N1CCN(Cc2ccccc2)CC1 (stereo not drawn),-8.34%
12,CC1(C)Cc2nc(O)c(C#N)cc2CO1,-1.93%
13,CC1=C(C(=O)Nc2ccccn2)C(c2ccccc2C)C2=C(O)CC(C)(C)CC2=N1 (stereo not drawn),-0.305%
14,COc1cccc(C2=N/C(=C\c3cc(OC)c(OC)cc3OC)C(=O)O2)c1,-34.6%
15,CN(Cc1ccccc1)c1c(-c2ccccc2)c(=O)c1=O,0.867%
16,O=C1N=C(Nc2ccc(Br)cc2)S/C1=C\c1cccs1,-4.7%
17,CS(=O)(=O)c1nc(S(=O)(=O)c2ccc(Cl)cc2)c(NCC2CCCO2)s1 (stereo not drawn),-0.522%
18,COc1cc2c(cc1OC)CN(CCC(=O)O)CC2,1.04%
19,CC1CCCC(NC(=O)Cn2cnc3c(nc4n3CCCCC4)c2=O)C1C (stereo not drawn),8.03%
20,CC(C)CC(NC(=O)c1cnccn1)C(=O)NCC#N (stereo not drawn),-5.64%
21,CCOC(=O)C1=CN(C(C)C)C=C(C(=O)OCC)C1c1ccc(OCC)cc1,1.86%
